Laboratory results published in paper PMC6919601, “Identification of Plasmodium dipeptidyl aminopeptidase allosteric inhibitors by high throughput screening” (PLoS ONE, 2019).
In all, about 110,000 compounds went through this assay and about 230 (0.21%) showed an effect of 50% or more. The list shows a part of the results.

These compounds were tested against DPAP1 (Plasmodium falciparum, UniProt Q8IIJ9) (assay: primary screen, percent inhibition; read by cleavage of a fluorogenic dipeptide substrate; higher = more effect of the substance).
Chain of DPAP1 (Q8IIJ9 whole entry, looked up): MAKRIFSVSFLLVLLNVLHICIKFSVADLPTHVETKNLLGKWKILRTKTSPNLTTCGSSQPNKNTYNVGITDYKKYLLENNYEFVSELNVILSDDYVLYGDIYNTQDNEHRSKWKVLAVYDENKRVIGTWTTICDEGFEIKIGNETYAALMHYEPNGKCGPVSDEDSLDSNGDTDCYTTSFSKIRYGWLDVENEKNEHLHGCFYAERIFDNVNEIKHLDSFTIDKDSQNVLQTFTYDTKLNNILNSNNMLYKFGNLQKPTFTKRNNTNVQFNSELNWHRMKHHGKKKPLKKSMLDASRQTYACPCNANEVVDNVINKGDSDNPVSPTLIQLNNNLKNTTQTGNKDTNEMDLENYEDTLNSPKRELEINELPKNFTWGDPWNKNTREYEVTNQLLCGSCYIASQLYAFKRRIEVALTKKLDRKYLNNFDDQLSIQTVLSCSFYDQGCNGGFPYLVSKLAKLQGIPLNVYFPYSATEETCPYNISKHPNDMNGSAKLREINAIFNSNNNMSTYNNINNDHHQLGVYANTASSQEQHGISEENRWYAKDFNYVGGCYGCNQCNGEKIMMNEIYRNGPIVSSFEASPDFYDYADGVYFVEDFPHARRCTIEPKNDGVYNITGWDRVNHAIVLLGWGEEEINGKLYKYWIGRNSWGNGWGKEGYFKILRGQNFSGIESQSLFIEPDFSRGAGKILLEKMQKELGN
Design: species or system P. falciparum D10 trophozoite lysates; single well
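Note: 30 min substrate incubation versus DMSO and 10 µM JCP410 controls.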

SMILES	% Inhibition @ 10 uM
COc1ccc(NC2=CC(=O)CC(c3ccc(OC)cc3)C2)cc1 (stereo not shown)	3.05%
CCN(CC)CCNC(=O)Cn1cc2c(n1)-c1c(oc(C(=O)N3CCCC3)c1C)CC2	-4.07%
O=C(Nc1ccccc1)C1CC=CCC1C(=O)OCC1CCCO1 (stereo not shown)	3.25%
O=C(c1cccs1)N1CCN(c2ccccc2)CC1	-6.82%
COc1ccc(CNC(=O)CCn2c(-c3ccc(F)cc3)cc(C(C)=O)c2C)cc1OC	1.68%
CC1CN(C(=O)c2ccc3c(c2)OCO3)OC(c2c[nH]c3ccccc23)O1 (stereo not shown)	5.58%
CC(C)CN(CCNC(=O)c1csc2c1CCCC2)CC(C)C	-1.44%
NC(=O)c1ccc2c(c1)C1c3ccccc3C2c2ccccc21	5.77%
Cc1cc(C(=O)NCc2ccccc2C)c2c(C)nn(-c3ccccc3)c2n1	-0.257%
O=C(CCNS(=O)(=O)c1ccc2nc(O)ccc2c1)NC1CCN(Cc2ccccc2)CC1	-1.97%
Cc1ccc(CSCC(=O)Nc2ccc3ccccc3c2)cc1	-5.14%
Cc1ccc(CN2CCN(CCO)CC2)o1	-5.42%
Cc1ccc(C(C)C)c(OCC(=O)Nc2cccc(Cl)c2)c1	-6.68%
N#C/C(=C/c1ccco1)c1nc(-c2ccccc2O)cs1	-3.4%
CN1CCCCC/C1=N\CCCn1cnc2c1c(=O)n(C)c(=O)n2C	2.99%
O=C(NCc1ccco1)C1CC(c2cccc(Br)c2)=NO1 (stereo not shown)	0.221%
CCCC1CCc2nc3ccccc3c(C(=O)O)c2C1 (stereo not shown)	2.55%
c1cc2c(cc1-c1cc(C3CCNCC3)n[nH]1)OCO2	-2.32%
CC1(C)CC(NC(=O)C(=O)NCCc2ccccc2)CC(C)(C)N1	-1.33%
COc1cccc(C2NC(CCSC)(C(=O)O)C3C(=O)N(C(C)C)C(=O)C23)c1O (stereo not shown)	2.7%
O=C(N/C(=C\c1ccc(Br)cc1)C(=O)N(CCO)CCO)c1ccco1	7.1%
c1ccc(Cc2c[nH]c3ccccc23)cc1	0.736%

SMILES	% Inhibition @ 10 uM
Cc1ccc(CN2C(=O)CCC2C(=O)NCc2ccc(F)cc2)cc1 (stereo not shown)	-0.0542%
Fc1ccc(F)c(CN2CCN(C/C=C/c3ccccc3)CC2)c1	-2.21%
CC(C)(C)c1ccc(S(=O)(=O)CCc2ccncc2)cc1	-6.82%
NC(=O)NC(c1ccccc1)c1ccccc1Cl (stereo not shown)	0.177%
CCC1CCc2c(sc(NC(=O)COc3ccc4ccccc4c3)c2C(N)=O)C1 (stereo not shown)	-2.68%
CCOc1cc(C2c3c(oc4ccccc4c3=O)C(=O)N2c2nc(C)c(C(C)=O)s2)ccc1O (stereo not shown)	-0.828%
CCCC(=O)N1CCS(=O)CC1	4.35%
OCCN1CCN(Cc2ccc(Br)o2)CC1	-0.856%
COc1ccc(NC(=O)CN(Cc2ccccc2)S(=O)(=O)c2ccc(F)cc2)cc1	3.56%
Clc1cccc(OCCCCn2ccnc2)c1	1.74%
CCOc1cc(CN2CCN(c3cccc(C(F)(F)F)c3)CC2)ccc1OC	4.81%
CC1=C(c2ccc(C)c(C)c2)S(=O)(=O)N=C1N1CCN(C(=O)c2ccco2)CC1	-1.08%
CCc1nn(CC(=O)NCc2ccccc2C)c(=O)c2cc3sc(C)cc3n12	9.33%
CCOC(=O)C1=C(C)NC(=O)NC1c1ccc(OC(C)C)c(OC)c1 (stereo not shown)	-1.11%
Cc1cc(-c2[nH]nc3c2C(c2cccs2)C(C#N)=C(N)O3)c(C)s1 (stereo not shown)	0.777%
COc1ccc(CN2CCN(C)CC2)c(OC)c1C	-2.03%
CCCCC1(c2ccccc2)C(=O)NC(=O)NC1=O	0.219%
Cc1ccc(CNC(=O)CN(c2ccc(C)cc2)S(=O)(=O)c2ccccc2)cc1	-5.92%
CCOC(=O)c1sc2ncnc(N)c2c1C	-1.2%
O=C1ON=C(c2ccccc2)/C1=C/c1ccc(-c2ccc(C(=O)O)cc2)o1	-2.98%
CCOC(=O)C1=C(CSc2nc3ccccc3nc2C)OC(N)=C(C#N)C1c1ccccc1F (stereo not shown)	-1.72%
O=C(Nc1nn[nH]n1)C12CC3CC(CC(C3)C1)C2	-6.08%

SMILES	% Inhibition @ 10 uM
Nc1c(-c2ccccc2)nc2ccccn12	0.231%
COc1ccc(/N=C2\S/C(=C\c3c(C)n(CC(=O)O)c4ccccc34)C(=O)N2C)cc1	7.25%
COc1ccc(CN2CCN(C(=O)CC(C)C)CC2)c(OC)c1	-7.14%
C=Cc1ccc(Cn2c(C(=O)O)c(CNC3CCCCCCC3)c3ccccc32)cc1	2.81%
Cc1cc(NS(=O)(=O)c2ccc(NC(=O)COc3ccc(C)c(C)c3)cc2)nc(C)n1	3.64%
O=C(NC(Cc1ccccc1)C(=O)O)c1ccccc1[N+](=O)[O-] (stereo not shown)	-3.61%
Cc1ccc(NC(=O)c2cc(F)c(Cl)nc2Cl)c(C)c1	1.89%
O=C(Nc1ccccn1)c1cc(S(=O)(=O)N2CCCCC2)ccc1Br	-9.81%
CC(=O)c1c(-c2ccccc2)nn(-c2nc3ccccc3s2)c1O	0.709%
CC1CCN(c2c(NCC3CCC(C(=O)NCc4ccc5c(c4)OCO5)CC3)c(=O)c2=O)CC1 (stereo not shown)	-3.96%
N=C(Cc1ccc(Cl)cc1Cl)NOC(=O)c1cccs1	2.17%
O=C(NC1=NN(c2c(Cl)cc(Cl)cc2Cl)C(=O)C1)c1cccc(N2C(=O)CCC2=O)c1	-1.65%
COc1ccc(/C(O)=C/C=N/c2ccc3c(c2)OCO3)cc1OC	-0.864%
COC(=O)c1c(C)[nH]c(C(=O)CSc2nnc3cc(C)c4ccccc4n23)c1C	16.6%
O=C(Nc1nncs1)c1cccc(S(=O)(=O)N2CCOCC2)c1	3.04%
O=C(CCCn1ncn2c(cc3occc32)c1=O)NCCCc1ccccc1	-0.281%
Cc1cc(C)c(OCC(O)CN2CCCC2)c(C)c1 (stereo not shown)	3.8%
CCOC(=O)N1CCN(Cc2nc3c(c(=O)n(C)c(=O)n3C)n2CC)CC1	-0.499%
Cc1ccc(F)c(NC(=O)Nc2ccccc2)c1	-0.414%
COc1ccc(N2CCN(C(=O)c3c(C)nn(-c4ccccc4)c3C)CC2)cc1	-2.46%
